Reference: the RNAGym collection of RNA variant scans (doi:10.1093/nar/gkz1192)
Read counts are not given, so values of variants with three or more changes are uncertain.

B1: CPEB3 Ribozyme (parent)
chain: UAACAGGGGGCCACAGCAGAAGCGUUCACGUCGCAGCCCCUGUCAGAUUCUGGUGAAUCUGCGAAUUCUGCUGUAUAUCUC

Variants of: B1
Test: self-cleavage, relative activity (ratio to wild type); higher = more cleavage; in vitro, sequencing
Method in brief: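 Barcoded CPEB3 ribozyme mutants, produced by rounds of error-prone PCR, self-cleaved while being transcribed with T7 RNA polymerase for 5 hours at 37°C and during a subsequent 15 min DNase I step before EDTA was added. Sequencing of template-switched cDNA on Illumina gave cleaved and total reads, and DNA sequencing assigned barcodes to variants. Each variant's relative activity is its cleaved/total read fraction divided by the unmutated ribozyme's fraction, averaged across three batches. A variant needed a minimum of 5 reads.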

Variant | self-cleavage
A5G A15G U41C G52A U60C | 0.18
A5G A15G U41C U54G U66C | 0.2
A5G A15G U49C | 0.33
A5G A15G U49C U80C | 0.48
A5G A15G U51A A57G U58C | 0.17
A5G A15G U54C | 0.12
A5G A15G U67C U69A | 0.25
A5G A15G U67C U69G | 0.29
A5G A15G U69C | 0.33
A5G A15G U72C C79G | 1.01
A5G A15G U80C | 0.77
A5G A15U A18U A28U A47C A77U | 0.54
A5G A15U A18U G33A U43A | 0.34
A5G A15U A20G A21G G73A | 0.7
A5G A15U A20G U26C | 0.51
A5G A15U A21G A35U U41A U69A | 0.09
A5G A15U A21U U74A U80A | 0.07
A5G A15U A28G A57G A64G U76C | 0.39
A5G A15U A35G A65G G70C U80A | 0.34
A5G A15U A35G C50U C71U | 0.65
A5G A15U A35G C71U | 0.69

Variant | self-cleavage
A5G A15U A35U U41G | 0.6
A5G A15U A75C U80C | 0.75
A5G A15U C38A U48C | 0.32
A5G A15U C44A A75U | 0.24
A5G A15U G16A G22A A35G U48C A64U | 0.07
A5G A15U G19A U49A U60C U74A U80G | 0.06
A5G A15U U25C A57G | 0.08
A5G A15U U26C U41C U80C | 0.68
A5G A15U U26G | 0.51
A5G A15U U31A U78C | 0.45
A5G A15U U41A U69A | 0.07
A5G A15U U43A | 0.53
A5G A15U U43C | 0.76
A5G A15U U43C U78C | 0.5
A5G A15U U54C | 0.48
A5G A15U U54C U80C | 0.65
A5G A15U U78C | 0.37
A5G A18C A28G U67A | 0.06
A5G A18C A77G | 0.23
A5G A18C G53A | 0.45
A5G A18C U41A A57G C68A | 0.28

Variant | self-cleavage
A5G A18C U67C | 0.39
A5G A18G A20G A28G U43A A64U U67C | 0
A5G A18G A20G A35G U49A A56U U60C | 0.12
A5G A18G A20U U26C | 0.61
A5G A18G A20U U48C | 0.44
A5G A18G A21C U26A U60G | 0.47
A5G A18G A21G A45U U66C U69A | 0.04
A5G A18G A28G U48C G52U U67C | 0.37
A5G A18G A28U U41A U69A A75U | 0.07
A5G A18G A35G A45U U48A U69A U78C | 0.27
A5G A18G A35G A65G U69G | 0.28
A5G A18G A35U U49C U67C U80A | 0.08
A5G A18G A35U U80A | 0.17
A5G A18G A56C U78C | 0.43
A5G A18G A64U U67A | 0.09
A5G A18G C29G U51C U69C G70U | 0.06
A5G A18G C38U U67C | 0.07
A5G A18G G33C U54A | 0.39
A5G A18G U25A A35U U78C | 0.33
A5G A18G U25A U66A | 0.07
A5G A18G U26A C38A U58C U66C U69C | 0.22

Variant | self-cleavage
A5G A18G U26A U43A A57G C68U | 0.1
A5G A18G U26C C29U A65G | 0.07
A5G A18G U26G A45U A47G U58C A77C | 0.25
A5G A18G U31C G46U C62G A75U | 0.17
A5G A18G U43A C79A | 0.86
A5G A18G U48C U72A | 0.1
A5G A18G U51A U69A U72C A75G | 0.14
A5G A18G U51C A65G | 0.42
A5G A18U A28G U60C | 0.12
A5G A18U A35G U51C U72A | 0.21
A5G A18U A45G U51A U54C U72A | 0.26
A5G A18U A47G A57G | 0.52
A5G A18U C39A U80C | 0.52
A5G A18U C40G U60C C62G U80C | 0.08
A5G A18U C59A | 0.41
A5G A18U G24A C40U U41C U51A U67C | 0.07
A5G A18U G30U A35G U41C U49C U72C | 0.04
A5G A18U U41G A75U | 0.11
A5G A18U U41G U60A A64G | 0.4
A5G A18U U43A A57G G70C C81U | 0.1
A5G A18U U43A U67G | 0.07
